Where a chain is given by its changes, count along the chain named. This is one part of the list.
T1: RBFOX1 RRM (Homo sapiens, UniProt Q9NWB1 109-208)
T1 sequence: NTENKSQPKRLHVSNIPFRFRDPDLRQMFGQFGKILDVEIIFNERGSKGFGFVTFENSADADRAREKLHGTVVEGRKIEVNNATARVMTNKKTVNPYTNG

B1: ACUCCUA (DNA:RNA)
RNA: GGGAGACCGGAAUUCAGAUUGUCCACUCCUAUUAAAUCCCGUCGUAGCCACCA
DNA 1: CAATCTGAATTCCGGTCTCCC
DNA 2: TGGTGGCTACGACGGGATT
B2: GAAUCCG (DNA:RNA)
RNA: B1 RNA with A25G, C26A, U27A, C28U, U30C, A31G
DNA 1: CAATCTGAATTCCGGTCTCCC
DNA 2: TGGTGGCTACGACGGGATT
B3: GACAGCU (DNA:RNA)
RNA: GGGAGACCGGAAUUCAGAUUGUCCGACAGCUUUAAAUCCCGUCGUAGCCACCA
DNA 1: CAATCTGAATTCCGGTCTCCC
DNA 2: TGGTGGCTACGACGGGATT
B4: GCGUUUC (DNA:RNA)
RNA: B1 RNA with A25G, U27G, C28U, C29U, A31C
DNA 1: CAATCTGAATTCCGGTCTCCC
DNA 2: TGGTGGCTACGACGGGATT
B5: CAGCUGC (DNA:RNA)
RNA: B1 RNA with A25C, C26A, U27G, C29U, U30G, A31C
DNA 1: CAATCTGAATTCCGGTCTCCC
DNA 2: TGGTGGCTACGACGGGATT
B6: GCAAGUA (DNA:RNA)
RNA: B1 RNA with A25G, U27A, C28A, C29G
DNA 1: CAATCTGAATTCCGGTCTCCC
DNA 2: TGGTGGCTACGACGGGATT
B7: AAUACAG (DNA:RNA)
RNA: B1 RNA with C26A, C28A, U30A, A31G
DNA 1: CAATCTGAATTCCGGTCTCCC
DNA 2: TGGTGGCTACGACGGGATT
B8: CUUGUGG (DNA:RNA)
RNA: B1 RNA with A25C, C26U, C28G, C29U, U30G, A31G
DNA 1: CAATCTGAATTCCGGTCTCCC
DNA 2: TGGTGGCTACGACGGGATT
B9: ACAGUGU (DNA:RNA)
RNA: B1 RNA with U27A, C28G, C29U, U30G, A31U
DNA 1: CAATCTGAATTCCGGTCTCCC
DNA 2: TGGTGGCTACGACGGGATT
B10: GGCAAUA (DNA:RNA)
RNA: B3 RNA with A26G, G29A, C30U, U31A
DNA 1: CAATCTGAATTCCGGTCTCCC
DNA 2: TGGTGGCTACGACGGGATT
B11: GAACGGG (DNA:RNA)
RNA: B3 RNA with C27A, A28C, C30G, U31G
DNA 1: CAATCTGAATTCCGGTCTCCC
DNA 2: TGGTGGCTACGACGGGATT
B12: GCUGAGC (DNA:RNA)
RNA: B1 RNA with A25G, C28G, C29A, U30G, A31C
DNA 1: CAATCTGAATTCCGGTCTCCC
DNA 2: TGGTGGCTACGACGGGATT
B13: UAAUUGC (DNA:RNA)
RNA: B3 RNA with G25U, C27A, A28U, G29U, C30G, U31C
DNA 1: CAATCTGAATTCCGGTCTCCC
DNA 2: TGGTGGCTACGACGGGATT
B14: AGAGCCA (DNA:RNA)
RNA: B1 RNA with C26G, U27A, C28G, U30C
DNA 1: CAATCTGAATTCCGGTCTCCC
DNA 2: TGGTGGCTACGACGGGATT
B15: GGGCGGA (DNA:RNA)
RNA: B1 RNA with A25G, C26G, U27G, C29G, U30G
DNA 1: CAATCTGAATTCCGGTCTCCC
DNA 2: TGGTGGCTACGACGGGATT
B16: AUAGACC (DNA:RNA)
RNA: B1 RNA with C26U, U27A, C28G, C29A, U30C, A31C
DNA 1: CAATCTGAATTCCGGTCTCCC
DNA 2: TGGTGGCTACGACGGGATT
B17: UCACAUA (DNA:RNA)
RNA: B1 RNA with A25U, U27A, C29A
DNA 1: CAATCTGAATTCCGGTCTCCC
DNA 2: TGGTGGCTACGACGGGATT
B18: AGACGCC (DNA:RNA)
RNA: B1 RNA with C26G, U27A, C29G, U30C, A31C
DNA 1: CAATCTGAATTCCGGTCTCCC
DNA 2: TGGTGGCTACGACGGGATT
B19: UCAUUCC (DNA:RNA)
RNA: B1 RNA with A25U, U27A, C28U, C29U, U30C, A31C
DNA 1: CAATCTGAATTCCGGTCTCCC
DNA 2: TGGTGGCTACGACGGGATT
B20: CACCUAC (DNA:RNA)
RNA: B3 RNA with G25C, A28C, G29U, C30A, U31C
DNA 1: CAATCTGAATTCCGGTCTCCC
DNA 2: TGGTGGCTACGACGGGATT
B21: AAACAGU (DNA:RNA)
RNA: B1 RNA with C26A, U27A, C29A, U30G, A31U
DNA 1: CAATCTGAATTCCGGTCTCCC
DNA 2: TGGTGGCTACGACGGGATT
B22: AAUCUUU (DNA:RNA)
RNA: B1 RNA with C26A, C29U, A31U
DNA 1: CAATCTGAATTCCGGTCTCCC
DNA 2: TGGTGGCTACGACGGGATT
B23: GUGCUGC (DNA:RNA)
RNA: B1 RNA with A25G, C26U, U27G, C29U, U30G, A31C
DNA 1: CAATCTGAATTCCGGTCTCCC
DNA 2: TGGTGGCTACGACGGGATT
B24: CAUGGGG (DNA:RNA)
RNA: B3 RNA with G25C, C27U, A28G, C30G, U31G
DNA 1: CAATCTGAATTCCGGTCTCCC
DNA 2: TGGTGGCTACGACGGGATT
B25: GCUAGUU (DNA:RNA)
RNA: B3 RNA with A26C, C27U, C30U
DNA 1: CAATCTGAATTCCGGTCTCCC
DNA 2: TGGTGGCTACGACGGGATT
B26: CCAGCUA (DNA:RNA)
RNA: B1 RNA with A25C, U27A, C28G
DNA 1: CAATCTGAATTCCGGTCTCCC
DNA 2: TGGTGGCTACGACGGGATT
B27: AACACCG (DNA:RNA)
RNA: B3 RNA with G25A, G29C, U31G
DNA 1: CAATCTGAATTCCGGTCTCCC
DNA 2: TGGTGGCTACGACGGGATT
B28: GCCUAAG (DNA:RNA)
RNA: B3 RNA with A26C, A28U, G29A, C30A, U31G
DNA 1: CAATCTGAATTCCGGTCTCCC
DNA 2: TGGTGGCTACGACGGGATT
B29: UUCUCUG (DNA:RNA)
RNA: B1 RNA with A25U, C26U, U27C, C28U, A31G
DNA 1: CAATCTGAATTCCGGTCTCCC
DNA 2: TGGTGGCTACGACGGGATT
B30: AGCGUUA (DNA:RNA)
RNA: B1 RNA with C26G, U27C, C28G, C29U
DNA 1: CAATCTGAATTCCGGTCTCCC
DNA 2: TGGTGGCTACGACGGGATT
B31: CGCGGUA (DNA:RNA)
RNA: B1 RNA with A25C, C26G, U27C, C28G, C29G
DNA 1: CAATCTGAATTCCGGTCTCCC
DNA 2: TGGTGGCTACGACGGGATT

Molecular target: T1, RBFOX1 RRM
Assay: EMSA; HiTS-Eq, 1 nM pool, 10 min; buffer printed only for the single-RNA assays: 10 mM Tris pH 7.5, 150 mM NaCl, 3.4 mM EDTA, 0.001% NP-40, 30 C
Conditions: tags: His6 N-terminal (pET28a); label: 5' 32P
Procedure, shortened: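 Relative association constants, normalised to the cognate motif, were derived by comparing read counts of each RNA species with those of the control reaction. The RNA sequenced was the free fraction, separated by 8% native PAGE after a 10 min equilibration in 50 µL of 1 nM 5′-radiolabelled RNA (7 randomized nucleotides) with increasing concentrations of purified wild-type or mutant RbFox RRM.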

Binder | binding signal
B1 | 0.00437 KA relative to UGCAUGU
B2 | 0.00852 KA relative to UGCAUGU
B3 | 0.00951 KA relative to UGCAUGU
B4 | 0.0163 KA relative to UGCAUGU
B5 | 0.0106 KA relative to UGCAUGU
B6 | 0.00909 KA relative to UGCAUGU
B7 | 0.000864 KA relative to UGCAUGU
B8 | 0.00448 KA relative to UGCAUGU
B9 | 0.00655 KA relative to UGCAUGU
B10 | 0.00549 KA relative to UGCAUGU
B11 | 0.00804 KA relative to UGCAUGU
B12 | 0.0214 KA relative to UGCAUGU
B13 | 0.0119 KA relative to UGCAUGU
B14 | 0.00273 KA relative to UGCAUGU
B15 | 0.0166 KA relative to UGCAUGU
B16 | 0.000304 KA relative to UGCAUGU

Binder | binding signal
B17 | 0.00165 KA relative to UGCAUGU
B18 | 0.00902 KA relative to UGCAUGU
B19 | 0.00283 KA relative to UGCAUGU
B20 | 0.00109 KA relative to UGCAUGU
B21 | 0.00262 KA relative to UGCAUGU
B22 | 0.00665 KA relative to UGCAUGU
B23 | 0.0174 KA relative to UGCAUGU
B24 | 0.00407 KA relative to UGCAUGU
B25 | 0.0211 KA relative to UGCAUGU
B26 | 0.00496 KA relative to UGCAUGU
B27 | 0.000491 KA relative to UGCAUGU
B28 | 0.00685 KA relative to UGCAUGU
B29 | 0.0167 KA relative to UGCAUGU
B30 | 0.00452 KA relative to UGCAUGU
B31 | 0.0105 KA relative to UGCAUGU

Source: publication PMC9911399, “Two distinct binding modes provide the RNA-binding protein RbFox with extraordinary sequence specificity”
